# Assay results reported in PubChem BioAssay AID686978 (National Center for Advancing Translational Sciences (NCATS), 2013).
# Hit rate of the full screen: of about 420,000 compounds, about 64,000 (15%) were called active. This list was built around the results that the source calls inconclusive (neither active nor inactive); the mix of calls is not that of the screen. Calls follow the shape of the dose curve; as a rule, active = well fitted inhibition curve with a large enough effect; inconclusive = small, poorly fitted or top-dose-only effect; inactive = flat fitted curve, though single readings scatter. No potency is given beside an inconclusive call; the fits are too rough.
# Experiment: qHTS for Inhibitors of human tyrosyl-DNA phosphodiesterase 1 (TDP1): qHTS in cells in absence of CPT; also: nearly all actives have a fitted effect of over 55% in size
# Settings: DT40 Tdp1-/- hTDP1 cells, no CPT, ATP luminescence, 48 h; activity change, negative = growth inhibition: at 46.2 µM (top of the series)
# Method in brief: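 Growth of hTDP1-complemented DT40 Tdp1-knockout cells is measured by ATP luminescence after at least 48 hr compound exposure at 37 °C, with DMSO substituting for the 20 nM CPT used in the parallel screen.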
# % is scaled to controls: 0 for no effect and ±100 for the full control effect; potency is read from the fitted curve at half-maximal effect; tags tell the direction and shape of the fitted curve.
SMILES,Potency,"activity change, negative = growth inhibition"
O=C1c2cccc([N+](=O)[O-])c2C(=O)N1c1ccccc1,inactive,
CC(C(=O)N(C1CC1)C1(C(=O)Nc2ccccc2)CCCC1)N1C(=O)c2ccccc2C1=O (stereo not given),inactive,
COc1ccc2c(c1)CC(C(=O)Nc1cccc(C)c1C)CO2 (stereo not given),inactive,
COc1ccc(C(=O)C(C)OC(=O)c2cccc(S(=O)(=O)Nc3cc(Cl)c(OC)cc3OC)c2)cc1 (stereo not given),active: 20.6 µM,
CC(C)c1ccc(NC(=O)C2CCCN(S(=O)(=O)c3cccc4nsnc34)C2)cc1 (stereo not given),active: 10.3 µM,
COc1cc(/C=C/C(=O)N(C)CC(=O)Nc2ccccc2Br)cc2c1OCCO2,"inconclusive [inhibitor, partial curve]",
CN(CCc1ccccc1)C(=O)c1ccc(NC(=O)Cc2ccc(NC(=O)C3CCN(C(=O)C4CCC4)CC3)cc2)cc1,active: 10.3 µM,
COc1cccc(/C=C2\CCc3ccccc3C2=O)c1,"inconclusive [inhibitor, single point]",
Cc1cccc(CNC(=O)c2cnn(-c3ncc(C)c(-c4ccc(F)cc4)n3)c2C)n1,inactive,
COc1cccc(-n2ccnc2SCC(=O)Nc2ccc(Cl)c(Cl)c2)c1,"inconclusive [inhibitor, single point]",
C=CCn1c(SCC(=O)Nc2cccnc2Cl)nnc1-c1ccccc1F,"inconclusive [inhibitor, partial curve, poor fit]",
O=C(CSC1=NC(=O)C(Cc2ccccc2)C(=O)N1)NC1CCCCC1 (stereo not given),inactive,
Cc1ccc(N(C(=O)c2snc(C(N)=O)c2N)C(C(=O)NCC2CCCO2)c2c[nH]c3ccccc23)cc1 (stereo not given),active: 4.11 µM,
COC(=O)c1ccc(NS(=O)(=O)c2c(C)nc3sccn3c2=O)cc1,"inconclusive [inhibitor, single point]",
O=C(O)c1ccc(NC(C(=O)c2ccccc2)c2ccccc2)cc1 (stereo not given),inactive,
Cc1ccc(C)c(N(CC(=O)N/N=C/c2ccc(-c3ccc([N+](=O)[O-])cc3)o2)S(=O)(=O)c2ccccc2)c1,"inconclusive [inhibitor, partial curve]",
O=C(/C=C/c1ccc([N+](=O)[O-])cc1)c1ccco1,"inconclusive [inhibitor, full curve]",
Cc1cc(OCC(=O)Nc2sc3c(c2C#N)CC(C)(C)NC3(C)C)c(C(C)C)cc1Cl,active: 16.4 µM,
CC(C)(C)c1ccc(C2=CC(c3ccccc3F)n3ncnc3N2)cc1 (stereo not given),inactive,
CCOc1ccc(N2CC(C(=O)NCc3ccccn3)CC2=O)cc1 (stereo not given),inactive,
CSc1ccc(CCNC(=O)c2ccc3c(c2)nc2n3CCCCC2)cc1,active: 16.4 µM,
CCOC(=O)C1=C(c2ccccc2)NC(=O)NC1c1ccc(OC)cc1 (stereo not given),"inconclusive [inhibitor, single point]",
COc1ccc(C2CC(=O)c3cnc4c(-c5ccccc5)c(C)nn4c3C2)cc1OC (stereo not given),"inconclusive [inhibitor, single point]",
C[C@H](CO)N1C[C@H](C)[C@@H](CN(C)C)Oc2c(NC(=O)Cc3ccccc3)cccc2C1=O,inactive,

SMILES,Potency,"activity change, negative = growth inhibition"
CCCCN(C(=O)COc1ccc(C)cc1OC)c1c(N)n(CCC)c(=O)[nH]c1=O,inactive,
O=C(O)CSc1ncnc2c1sc1nc(-c3ccccc3)c3c(c12)CCC3,"inconclusive [inhibitor, partial curve]",
Nc1c(C(=O)NCCN2CCOCC2)c2nc3ccccc3nc2n1CCc1ccccc1F,"inconclusive [inhibitor, single point]",
Cc1ccc(S(=O)(=O)N2CCN(C(=O)c3cc(S(=O)(=O)N4CCOCC4)ccc3Cl)CC2)c(C)c1,active: 16.4 µM,
CCCNC(=O)C1(C)CCCN(C(=O)c2ccccc2F)C1 (stereo not given),inactive,
O=C(Cn1cnc2ccccc21)N/N=C/c1cccc([N+](=O)[O-])c1,inactive,
COc1cc2[nH]c(=O)n(CCCCCC(=O)N3CCN(c4ccccn4)CC3)c(=O)c2cc1OC,"inconclusive [inhibitor, single point]",
CC1(C)OC2C[C@](O)(C(N)=O)C[C@H](O)[C@H]2O1 (stereo not given in full),inactive,
Nc1ccc(C(=O)C(=O)c2ccc(N)cc2)cc1,inactive,
O=C(CCCN1C(=O)/C(=C/c2cccs2)SC1=S)Nc1ccccc1O,"inconclusive [inhibitor, partial curve]",
Cn1c(=O)cc(SCC(=O)N2CCN(c3ccccn3)CC2)c2ccccc21,"inconclusive [inhibitor, partial curve]",
CC(=O)c1c(C)[nH]c(C(=O)N2CCN(c3cc(Cl)ccc3C)CC2)c1C,active: 5.8 µM,
COc1ccc(OCC(=O)N2CCC(c3nc4ccccc4s3)CC2)cc1,"inconclusive [inhibitor, single point]",
COc1ccc(CN2CCN(C3CCSCC3)CC2CCO)c(C)c1C (stereo not given),active: 16.4 µM,
CCCCOc1ccc(C(=O)Nc2ccc3oc(-c4cccnc4)nc3c2)cc1,"inconclusive [inhibitor, full curve]",
CC(C)(C)/C(COc1ccccc1[N+](=O)[O-])=N/O,inactive,
COc1ccc(/C(O)=C2/C(=O)C(=O)N(CCCN3CCOCC3)C2c2ccc(N(C)C)cc2)cc1 (stereo not given),"inconclusive [inhibitor, single point]",
Cc1ccc2c(NC(=O)c3ccco3)cccc2n1,inactive,
Cc1cccc(NS(=O)(=O)c2cc3c(cc2C)n(C)c(=O)c(=O)n3C)c1,"inconclusive [inhibitor, partial curve]",
COc1ccc(CNC(=O)c2ccc(Cl)c(S(=O)(=O)N3CCOCC3)c2)cc1OC,active: 7.31 µM,
Cc1ncc2c(c1CNC(=O)c1ccccc1F)CCN(C(=O)c1[nH]c3ccc(Cl)cc3c1C)C2,"inconclusive [inhibitor, single point]",
N#Cc1ccccc1OCC(=O)N1N=C(c2cccs2)CC1c1ccco1 (stereo not given),"inconclusive [inhibitor, single point]",
ON=C1c2ccccc2-c2cc(Br)ccc21,"inconclusive [inhibitor, partial curve]",
COc1ccc(NC(=O)CN(C)C(=O)c2cc(-c3ccc(C)o3)nc3ccccc23)cc1,"inconclusive [inhibitor, single point]",

SMILES,Potency,"activity change, negative = growth inhibition"
CC(Oc1ccc2c3c(c(=O)oc2c1)CCC3)C(=O)NCc1ccccn1 (stereo not given),"inconclusive [inhibitor, single point]",
CCN1CCN(c2nnc(-c3ccc(C)cc3)c3ccccc23)CC1,inactive,
COc1ccc(CNC(=O)C(C)Sc2nc(-c3ccccc3)cc(C(F)(F)F)n2)cc1 (stereo not given),"inconclusive [inhibitor, partial curve, poor fit]",
COc1ccc(-n2ncc3c2CC(C)(C)CC3NC(=O)CN2CCOC2=O)cc1 (stereo not given),,inconclusive: -51.3% [inhibitor]
NS(=O)(=O)c1ccc(NC(=O)c2ccc(-c3ccccc3)cc2)cc1,inactive,
CCC(C(=O)OCC(=O)N1CCN(S(=O)(=O)c2ccc(C)cc2C)CC1)c1ccccc1 (stereo not given),"inconclusive [inhibitor, single point]",
O=C(COC(=O)c1ccc(S(=O)(=O)N2CCCC2)cc1)Nc1cccc(Br)c1,"inconclusive [inhibitor, single point]",
O=C(Nc1cc(S(=O)(=O)N2CCOCC2)ccc1O)c1ccc(S(=O)(=O)N2CCCCC2)cc1,"inconclusive [inhibitor, partial curve]",
CCn1c(NCc2cc(Cl)ccc2O)nc2ccccc21,"inconclusive [inhibitor, partial curve]",
COc1ccccc1C(=O)NC(=O)COC(=O)Cc1ccccc1[N+](=O)[O-],"inconclusive [inhibitor, partial curve]",
Cc1ccc(CNC(=O)c2ccc3c(c2)c(C)c(C)n3Cc2ccccc2)o1,"inconclusive [inhibitor, single point]",
N#CCc1cc2ccc3cccc4ccc(c1)c2c34,"inconclusive [inhibitor, single point]",
COc1cc2c(cc1OC)-c1cc(OCCN3CCOCC3)nc(=O)n1CC2,"inconclusive [inhibitor, single point]",
O=C(OCCCCN1C(=O)c2ccccc2C1=O)c1n[nH]c2ccccc12,"inconclusive [inhibitor, single point]",
Cc1cccc(C)c1NC(=O)CNC(=O)c1ccc2nc[nH]c2c1,inactive,
O=c1cc(C(F)(F)F)[nH]c2ccc(C(F)(F)F)cc12,active: 0.731 µM,
Cc1cccc(S(=O)(=O)c2cn(Cc3ccccc3)c3cc(N4CCOCC4)c(F)cc3c2=O)c1,active: 20.6 µM,
Cc1c2cnn(CC(=O)NCC(C)c3ccccc3)c(=O)c2c(C)n1Cc1cccc(Cl)c1 (stereo not given),"inconclusive [inhibitor, single point]",
COc1ccc(C#Cc2cccc(-c3nc(C(=O)NCCCN4CCOCC4)cc4c3[C@H](CCO)N(S(=O)C(C)(C)C)C4)c2)cc1OC (stereo not given in full),active: 23.1 µM,
CC1CN(CCCOc2ccccc2-c2ccccc2)CC(C)O1 (stereo not given),"inconclusive [inhibitor, partial curve]",
Cc1ccc(-n2c(N)c(C(=O)NCc3cccnc3)sc2=S)cc1,"inconclusive [inhibitor, partial curve]",
CCn1ccc2cc(S(=O)(=O)N3CCC(C(=O)NCCc4ccccc4Cl)CC3)ccc21,"inconclusive [inhibitor, single point]",
